# Experimental data reported in PubChem BioAssay AID651820 (National Center for Advancing Translational Sciences (NCATS), 2012).
# Where “and” joins values, the source holds several entries; their conditions need not be identical. Equal values may be shown once. In all, about 340,000 compounds went through this assay and about 12,000 (3.5%) were called active. Inconclusive means that the source gave no clear call. Such entries were picked first, then a sample of the others. Calls follow the shape of the dose curve; as a rule, active = well fitted inhibition curve with a large enough effect; inconclusive = small, poorly fitted or top-dose-only effect, or another doubt; inactive = no such curve, though single readings can be large or run the other way. Where the call is inconclusive, the potency comes from a doubtful curve fit.
# Assay: qHTS Assay for Inhibitors of Hepatitis C Virus (HCV)
# Settings: Huh7.5.1 HCVcc-Cre (HCVcc is cell-culture hepatitis C virus) infection, luciferase reporter, 44 h; series mostly up to 41.8 µM
# Outline: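 Infectious HCV cell culture screen: compound-treated cells (1,000/well, pre-plated 4 h) are infected with HCVcc-Cre at roughly 0.5 moi and grown 44 h. Infection is quantified by luciferase signal after 15 min substrate incubation at room temperature.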
# Potency is read from the fitted curve at half-maximal effect; tags tell the direction and shape of the fitted curve.
row,Structure (SMILES),Potency
1,COc1ccc2c(c1)[C@H]1[C@H](CO2)[C@H](c2ccccc2)[C@]2(C)C(=O)N(Cc3ccc(C)cc3)CC(=O)N12,active: 10 µM
2,CCN(CC)c1ccc(NC(=O)CSc2ccsc2[N+](=O)[O-])c(C)c1,"inconclusive: 2 µM [inhibitor, single point]"
3,CC1CCC(C(C)C)C(OC(=O)Cn2c(-c3ccc(F)cc3)[n+](C)c3ccccc32)C1 (configuration not stated),active: 10 µM
4,COc1cc(OC)c(C=NNC(=S)NC23CC4CC(CC(C4)C2)C3)c(OC)c1,"inconclusive: 10 µM [inhibitor, partial curve]"
5,CCc1nc(N2CCC3(CC2)OCCO3)c2nnn(Cc3ccccc3)c2n1,"inconclusive: 1.26 µM [inhibitor, full curve]"
6,O=C(NCC1CCCO1)Nc1cc(Cl)cc(Cl)c1 (configuration not stated),inactive
7,CCCCNC(=O)CCc1c(C)nc2c(c(C)nn2-c2ccccc2)c1C,"inconclusive: 31.6 µM [inhibitor, single point]"
8,CON(C)C(=O)C[C@@H]1C[C@H](OC(=O)c2ccc([N+](=O)[O-])cc2)CN1C(=O)OC(C)(C)C,inactive
9,COc1cc(OC)c(CN2CCC(CO)(CCOc3ccccc3)CC2)c(OC)c1,"inconclusive: 11.2 µM [inhibitor, partial curve]"
10,Cc1cc(C(=O)CSc2nnc(Cc3ccccc3)o2)c(C)n1Cc1ccc2c(c1)OCO2,"inconclusive: 22.4 µM [inhibitor, single point] and inconclusive: 1.58 µM [inhibitor, partial curve]"
11,CCn1cc(C(=O)N(C)Cc2ccc(OC(F)F)cc2)c(=O)c2ccc(C)nc21,inactive
12,OC(COc1ccc(Br)cc1)CN1CCC(Cc2ccccc2)CC1 (configuration not stated),"inconclusive: 11.2 µM [inhibitor, partial curve]"
13,CC1(C)COCN1S(=O)(=O)c1ccc(C(=O)Nc2nnc(-c3ccc(Cl)s3)o2)cc1,active: 2 µM
14,CCc1cc2c(N=Nc3c(O)[nH]c4ccccc34)ncnc2s1,"inconclusive: 0.891 µM [inhibitor, full curve, poor fit]"
15,Nc1ccc(S(=O)(=O)N2CCCc3ccccc32)cc1,inactive
16,CCn1c2ccccc2c2cc(N=C3SC(CC(=O)Nc4ccccc4OC)C(=O)N3C)ccc21 (configuration not stated),inactive
17,CC1CN(C(=O)CCNS(=O)(=O)c2ccc(Br)cc2)CC(C)O1 (configuration not stated),inactive
18,CN1CCC(N2CC3CC(C2)c2cccc(=O)n2C3)CC1 (configuration not stated),"inconclusive: 28.2 µM [inhibitor, partial curve]"
19,COC(=O)C1=C(C(=O)OC)C(C(=O)OC)C(C(=O)OC)C(C(=O)OC)(C(=O)OC)C(C(=O)OC)=C1C(=O)OC (configuration not stated),"inconclusive: 31.6 µM [inhibitor, single point]"
20,CCc1cccc(N=c2c([N+](=O)[O-])nn(-c3ccc(Cl)cc3)n2O)c1,"inconclusive: 17.8 µM [inhibitor, partial curve]"
21,C/C(=N/O)c1ccccn1,inactive
22,COc1ccc(N2CCN(C(=O)Nc3cccc(C(F)(F)F)c3)CC2)cc1,"inconclusive: 31.6 µM [inhibitor, single point]"
23,Cc1ccc(N=N/C(=C\O)C(=O)c2ccc(Cl)cc2)cc1,active: 10 µM

row,Structure (SMILES),Potency
1,COc1ccc(NS(=O)(=O)c2cc(NC(=O)c3cncc(Br)c3)ccc2OC)cc1,"inconclusive: 3.16 µM [inhibitor, single point]"
2,O=C(Nc1nc(-c2ccc(F)cc2)cs1)C1CCN(C(=O)c2ccc(F)cc2)CC1,"inconclusive: 31.6 µM [inhibitor, partial curve, poor fit]"
3,CC(Sc1nnnn1C)C(=O)Nc1ccccc1 (configuration not stated),inactive
4,COC(=O)[C@]1(Cc2ccccc2)N[C@H](c2ccc(-c3ccc(Cl)c(Cl)c3)cc2)[C@@H]2C(=O)N(C)C(=O)[C@@H]21,"inconclusive: 15.8 µM [inhibitor, single point]"
5,Cc1cc(NC(=O)c2sc(Nc3cccc(C(F)(F)F)c3)nc2N)no1,"inconclusive: 6.31 µM [inhibitor, partial curve]"
6,O=C(CN1C(=O)NC2(CCCC2)C1=O)N1CCN(c2ccc(C(F)(F)F)cc2[N+](=O)[O-])CC1,"inconclusive: 22.4 µM [inhibitor, single point]"
7,O=C(c1ccc(Cl)cc1)c1cc(-c2ccccn2)c(N2CCOCC2)s1,"inconclusive: 11.2 µM [inhibitor, partial curve]"
8,CCCCCC(=O)Nc1cccc(-c2nc3ncccc3o2)c1,"inconclusive: 1.26 µM [inhibitor, full curve]"
9,COc1cc(OC)cc(C(=O)N[C@H](C(=O)OCC(=O)Nc2ccc3c(c2)OCO3)C(C)C)c1,"inconclusive: 12.6 µM [inhibitor, single point]"
10,CCOc1ccc(S(=O)(=O)NCc2cccnc2)cc1NC(=O)c1ccccc1F,"inconclusive: 6.31 µM [inhibitor, full curve]"
11,COc1ccccc1-n1c(C)c(C(C)=O)c2cc(O)ccc21,"inconclusive: 3.98 µM [inhibitor, full curve]"
12,COc1ccc(OCC(=O)NC2CCCN(Cc3ccc(Cl)cc3)C2)cc1 (configuration not stated),"inconclusive: 14.1 µM [inhibitor, single point]"
13,C=CCOC(=O)C1=C(C)NC(=O)NC1c1ccc(N(C)C)cc1 (configuration not stated),inactive
14,CC(C)CNc1cc(N2CCCC2)ccc1[N+](=O)[O-],active: 3.98 µM
15,Cc1ccc(N2CC(C(=O)N3CCC4(CC3)CC(=O)c3ccccc3O4)CC2=O)cc1C (configuration not stated),"inconclusive: 10 µM [inhibitor, partial curve]"
16,CC(C)(C)C1C/C(=C/c2ccccn2)C(=O)/C(=C/c2ccccn2)C1 (configuration not stated),active: 0.891 µM
17,Cc1ccc(C2C3=C(CC(C)(C)CC3=O)N(CCN3CCOCC3)C3=C2C(=O)CC(C)(C)C3)cc1,inactive
18,Clc1cccc(Cl)c1CON/C=N/c1ncnc2sccc12,active: 11.2 µM
19,O=C(CCCOc1ccccc1)Nc1cccc(S(=O)(=O)N2CCCCC2)c1,"inconclusive: 22.4 µM [inhibitor, single point]"
20,Cc1ccc(-n2nc3c(=O)n(CC(=O)NC(C)CCc4ccccc4)nc(C)c3c2C)cc1 (configuration not stated),active: 2.24 µM
21,O=C(NCc1ccccc1CN1CCCC1)c1cc2cc(Cl)ccc2o1,active: 10 µM
22,COc1c(C(C)C)oc2cc3oc(=O)ccc3cc12,"inconclusive: 1.12 µM [inhibitor, full curve]"
23,Cc1cc(/C=N/NC(N)=S)c(C)n1-c1ccc(Cl)c(Cl)c1,"inconclusive: 22.4 µM [inhibitor, partial curve]"

row,Structure (SMILES),Potency
1,Cc1c(C(=O)Nc2cccc([N+](=O)[O-])c2)cnn1-c1ccccc1,"inconclusive: 1.78 µM [inhibitor, partial curve]"
2,CSc1cc(C)c(OCC(=O)Nc2ccc(NC(C)=O)cc2)c(C)c1,inactive
3,S=C1NC(c2cccs2)=CC(c2ccc(Br)cc2)N1 (configuration not stated),"inconclusive: 31.6 µM [inhibitor, single point]"
4,O=C(CSc1nnc(Nc2ccccc2F)s1)Nc1cccc(S(=O)(=O)N2CCCCC2)c1,active: 12.6 µM
5,CCOc1ccc(CCNC(=O)c2ccc(F)c(S(=O)(=O)N3CCOCC3)c2)cc1OCC,"inconclusive: 5.62 µM [inhibitor, full curve]"
6,CCCC(=O)N1CCN(c2ccc(NC(=S)NC(=O)c3cccc(C)c3)cc2)CC1,active: 7.08 µM
7,COc1ccc(/C=C/C(=O)Nc2ccc3c(c2)OCCO3)cc1OC,"inconclusive: 7.08 µM [inhibitor, partial curve]"
8,CCN(CC)C(=O)NC(c1ccc(C)c(F)c1)C(Cl)(Cl)Cl (configuration not stated),"inconclusive: 31.6 µM [inhibitor, single point]"
9,COc1ccc(S(N)(=O)=O)cc1C(=O)OCC(=O)N1CCCC(C)C1 (configuration not stated),inactive
10,O=C(c1ccc(OC2CCN(Cc3cccc(F)c3)CC2)cc1)N1CCCCC1,"inconclusive: 5.62 µM [inhibitor, full curve, poor fit]"
11,Cc1occc1-c1nnc(SCC(=O)Nc2ccc3c(c2)OCO3)n1CC1CCCO1 (configuration not stated),inactive
12,O=C(C1CCC(CNS(=O)(=O)c2cccs2)CC1)N1CCN(c2ccc(F)cc2)CC1 (configuration not stated),"inconclusive: 14.1 µM [inhibitor, single point]"
13,CCCCCCC[n+]1ccc(-c2cc[n+](CCCCCCC)cc2)cc1,"inconclusive: 1.58 µM [inhibitor, full curve]"
14,O=C(CC1SC2=NCCN2C1=O)Nc1ccccc1 (configuration not stated),inactive
15,COc1ccc(C2CC(c3ccc(Cl)cc3)=NN2c2ccc(S(N)(=O)=O)cc2)cc1 (configuration not stated),"inconclusive: 22.4 µM [inhibitor, partial curve]"
16,CCOC(=O)C1CCCN(C(=O)Cn2c(=O)c3cccn3c3cccnc32)C1 (configuration not stated),"inconclusive: 5.62 µM [inhibitor, single point]"
17,Cc1cc(C(=O)OCC(=O)Nc2cccc(S(=O)(=O)N3CCOCC3)c2)c(C)o1,"inconclusive: 31.6 µM [inhibitor, single point]"
18,COc1ccc(CCC(=O)Nc2sccc2C#N)cc1,"inconclusive: 31.6 µM [inhibitor, single point]"
19,CCOC(=O)c1cc(C#N)c(SCc2ccc(C#N)cc2)nc1C,"inconclusive: 3.98 µM [inhibitor, full curve, poor fit]"
20,CCCCn1c(N)c(Sc2ccc(Cl)cc2)c(=O)[nH]c1=O,"inconclusive: 31.6 µM [inhibitor, single point]"
21,COC(=O)C1=COC(C)C2CN3CCc4c([nH]c5cc(OC)c(OC)cc45)C3CC12 (configuration not stated),"inconclusive: 0.501 µM [inhibitor, full curve, poor fit]"
